Measurements published in PubChem BioAssay (NCATS).
“And” between values parts separate entries of the source, which are not always exact repeats. Equal values may be shown once. The shares of active, inactive and inconclusive entries below differ from those in the screen. Potencies beside an inconclusive call are fits to weak or partial responses and may not hold up. The source made the active and inactive calls. The call rests on the fitted dose curve; in most records, active means well fitted curve in the direction sought with a large enough effect; inconclusive means small, poorly fitted or top-dose-only effect, or another doubt; inactive means no such curve, though single readings can be large; an effect the other way counts as inactive or inconclusive.

Key:
[1] = qHTS of pediatric cancer cell lines to identify multiple opportunities for drug repurposing: Primary screen for Saos-2 cells (AID 1347097); conditions: Saos-2 viability, CellTiter-Glo ATP luminescence, 48 h; activity change, negative = cytotoxic: at 46 µM (top of the series); further: nearly all actives have a fitted effect of over 40% in size
How it was run: (§1)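 Cells plated at 500-1,000/well in growth medium, compounds added after 5 h. MIPE tested at 11 points (from 0.78 nM), NPC at 8 points (from 0.59 nM). CellTiter-Glo luminescence after 48 h; concentration-response curves from primary screen.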

[2] = qHTS of pediatric cancer cell lines to identify multiple opportunities for drug repurposing: Primary screen for SK-N-SH cells (AID 1347098); conditions: SK-N-SH viability, CellTiter-Glo luminescence, 48 h; activity change, negative = cytotoxic: at 57 µM (top of the series); further: nearly all actives have a fitted effect of over 65% in size;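 on activity change, negative = cytotoxic: DMSO served as neutral control and bortezomib at 2.3 µM as positive control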
How it was run: (§2)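 Cells (500-1,000/well) rested 5 h, then received compounds for 48 h; metabolically active cells were measured by CellTiter-Glo luminescence. Final concentrations spanned up to 46 µM (MIPE, 11-point) or 0.59 nM-46 µM (NPC, 8-point) in primary screens, 11-point in follow-ups.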

[3] = qHTS of pediatric cancer cell lines to identify multiple opportunities for drug repurposing: Primary screen for NB1643 cells (AID 1347099); conditions: NB1643 neuroblastoma viability, CellTiter-Glo luminescence, 48 h; series mostly up to 46 µM; further: nearly all actives have a fitted effect of over 50% in size
How it was run: as §1

[4] = qHTS of pediatric cancer cell lines to identify multiple opportunities for drug repurposing: Primary screen for LAN-5 cells (AID 1347100); conditions: LAN-5 neuroblastoma viability, CellTiter-Glo luminescence, 48 h; activity change, negative = cytotoxic: at 46 µM (top of the series)
How it was run: as §2

[5] = qHTS of pediatric cancer cell lines to identify multiple opportunities for drug repurposing: Primary screen for BT-12 cells (AID 1347101); conditions: BT-12 viability, CellTiter-Glo luminescence, 48 h; series mostly up to 57.3 µM; further: nearly all actives have a fitted effect of over 25% in size
How it was run: as §2

[6] = qHTS of pediatric cancer cell lines to identify multiple opportunities for drug repurposing: Primary screen for OHS-50 cells (AID 1347103); conditions: OHS-50 osteosarcoma viability, CellTiter-Glo luminescence, 48 h; series mostly up to 57.3 µM; further: nearly all actives have a fitted effect of over 40% in size
How it was run: as §2

[7] = qHTS of pediatric cancer cell lines to identify multiple opportunities for drug repurposing: Primary screen for RD cells (AID 1347104); conditions: RD rhabdomyosarcoma viability, CellTiter-Glo luminescence, 48 h; series mostly up to 46 µM; further: nearly all actives have a fitted effect of over 55% in size
How it was run: as §1

[8] = qHTS of pediatric cancer cell lines to identify multiple opportunities for drug repurposing: Primary screen for U-2 OS cells (AID 1347096); conditions: U-2 OS viability, CellTiter-Glo luminescence, 48 h; series mostly up to 46 µM; further: nearly all actives have a fitted effect of over 50% in size
How it was run: as §2
Potency means the concentration at half of the fitted maximal effect; tags describe the fitted curve by direction and shape.

Structure (SMILES)	Potency [1]	Potency [2]	Potency [3]	Potency [4]	Potency [5]	Potency [6]	Potency [7]	Potency [8]
CN(C)[C@@H](CCOc1cccc2ccccc12)c1ccccc1	inconclusive: 21.1 µM [cytotoxic, partial curve] and active: 26.4 µM	inconclusive: 38.6 µM [cytotoxic, single point]	inconclusive: 26.4 µM [cytotoxic, single point]	inconclusive: 26.4 µM [cytotoxic, partial curve, poor fit]	inconclusive: 21.9 µM [cytotoxic, single point] and inconclusive: 24.3 µM [cytotoxic, single point]	active: 15.5 µM and active: 21.7 µM	inconclusive: 26.6 µM [cytotoxic, single point]	
Cc1cc(O)c2c(c1)C(=O)c1cccc(O)c1C2=O	inconclusive: 18.7 µM [cytotoxic, partial curve, poor fit]							
COc1ncnc(NS(=O)(=O)c2ccc(N)cc2)c1OC	inactive	inactive	inactive					
Cc1cc(C(=O)NOCCO)c(Nc2ccc(I)cc2F)n(C)c1=O				inconclusive: 0.187 µM [cytotoxic, full curve, poor fit]	inconclusive: 611 nM [cytotoxic, full curve]	inconclusive: 7.7 nM [cytotoxic, partial curve, poor fit]	inconclusive: 0.0372 µM [cytotoxic, full curve]	inconclusive: 0.59 µM [cytotoxic, full curve]
